# Reference: the supplement of paper PMC8728848
# This is one part of the list.
# B1: PX14367B-bvu-516-23-516 (Bacteroides vulgatus) (protein)
# chain: LDTIPTTYVDAGSVFGKTGDAEKVLNGGWNYLMETFNSYANPGYGAMLRANDAMGSDVVLNSKYGFRTHNEFSAIYGKGGTNTLSWLLAYRVINDCNGVLDNIDAAEGTQADRNRIKGQALALRGFLYLHLASCYSFAIDKDPDAVCAPIYTQSTDETIAAEGKPASSVSEVYAQSINDLEEALELIPETYVRDAKHKIDNEVVLGILSRACLYARQWEKAKTYSDKLLAKDNYLMTESEYKAGFNSVDNKEWIWGHAQTNDQSNASYQFHYLDTTTKGSYYYSFNVDPYFRDLFEDGDYRKEMLFWATDPGADVESAAYVWMRNSKFRFRDIENQLGDIVLMRVAEIYLINAEAKAHLNDPDAINKLNDLKTARGAKTIHTNLSQQDLLETIWLERRKELWGEGFSLIDIIRNQQTVVRNAYPEGPIDYIYTDENGQTHTLKKKTQGHRFFNFPDKSAFCPNSKYYLYRITDSEELANKNLYKDHPKLSIYTK
# Legend:
# Assay in all cases: glycan array binding signal (z-score within array); higher = stronger binding
# Settings in all cases: glycan notation: IUPAC condensed, linker removed
# [1] = molecular target: Man(a1-3)[Man(a1-6)]Man(a1-6)[Man(a1-3)]Man
# Summary of the method: (§1)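 From the Consortium for Functional Glycomics database, 3228 arrays were curated, keeping only those whose protein sequence was available. Binding is given as a within-array Z-score averaged across arrays sharing a protein sequence and across linkers. Negative Z-scores can be read as non-binding.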
# [2] = molecular target: Man(a1-3)[Man(a1-6)]Man(a1-6)[Man(a1-3)]Man(b1-4)GlcNAc(b1-4)GlcNAc
# Summary of the method: as §1
# [3] = molecular target: Man(a1-3)[Man(a1-6)]Man(b1-4)GlcNAc(b1-4)GlcNAc
# Summary of the method: as §1
# [4] = molecular target: Man(a1-3)[Man(a1-6)]Man(b1-4)GlcNAc(b1-4)[Fuc(a1-6)]GlcNAc
# Summary of the method: as §1
# Man(a1-6)Man = molecular target: Man(a1-6)Man
# Summary of the method: as §1
# Man(b1-4)GlcNAc = molecular target: Man(b1-4)GlcNAc
# Summary of the method: as §1
# MurNAc(b1-4)GlcNAc = molecular target: MurNAc(b1-4)GlcNAc
# Summary of the method: as §1
# Neu5Ac(a2-3)Gal = molecular target: Neu5Ac(a2-3)Gal
# Summary of the method: as §1
# [5] = molecular target: Neu5Ac(a2-3)Gal(b1-3)GalNAc
# Summary of the method: as §1
# [6] = molecular target: Neu5Ac(a2-3)Gal(b1-3)GalNAc(b1-3)Gal(a1-4)Gal(b1-4)Glc
# Summary of the method: as §1
# [7] = molecular target: Neu5Ac(a2-3)Gal(b1-3)GalNAc(b1-4)[Neu5Ac(a2-3)]Gal(b1-4)Glc
# Summary of the method: as §1
# [8] = molecular target: Neu5Ac(a2-3)Gal(b1-3)GalNAc(b1-4)[Neu5Ac(a2-8)Neu5Ac(a2-3)]Gal(b1-4)Glc
# Summary of the method: as §1
# [9] = molecular target: Neu5Ac(a2-3)Gal(b1-3)GalNAc6S
# Summary of the method: as §1
# [10] = molecular target: Neu5Ac(a2-3)Gal(b1-3)GlcNAc
# Summary of the method: as §1
# [11] = molecular target: Neu5Ac(a2-3)Gal(b1-3)GlcNAc(b1-2)Man
# Summary of the method: as §1
# [12] = molecular target: Neu5Ac(a2-3)Gal(b1-3)GlcNAc(b1-2)Man(a1-3)[GlcNAc(b1-4)][Neu5Ac(a2-3)Gal(b1-3)GlcNAc(b1-2)Man(a1-6)]Man(b1-4)GlcNAc(b1-4)GlcNAc
# Summary of the method: as §1
# [13] = molecular target: Neu5Ac(a2-3)Gal(b1-3)GlcNAc(b1-2)Man(a1-3)[Neu5Ac(a2-3)Gal(b1-3)GlcNAc(b1-2)Man(a1-6)]Man(b1-4)GlcNAc(b1-4)GlcNAc
# Summary of the method: as §1
# [14] = molecular target: Neu5Ac(a2-3)Gal(b1-3)GlcNAc(b1-3)Gal(b1-3)GlcNAc
# Summary of the method: as §1
# [15] = molecular target: Neu5Ac(a2-3)Gal(b1-3)GlcNAc(b1-3)Gal(b1-4)GlcNAc
# Summary of the method: as §1
# [16] = molecular target: Neu5Ac(a2-3)Gal(b1-3)GlcNAc(b1-3)GalNAc
# Summary of the method: as §1
# [17] = molecular target: Neu5Ac(a2-3)Gal(b1-3)GlcNAc(b1-4)Gal(b1-4)Glc
# Summary of the method: as §1
# [18] = molecular target: Neu5Ac(a2-3)Gal(b1-3)GlcNAc(b1-6)GalNAc
# Summary of the method: as §1
# [19] = molecular target: Neu5Ac(a2-3)Gal(b1-3)GlcNAc6S
# Summary of the method: as §1
# [20] = molecular target: Neu5Ac(a2-3)Gal(b1-3)[Fuc(a1-4)]GlcNAc
# Summary of the method: as §1
# [21] = molecular target: Neu5Ac(a2-3)Gal(b1-3)[Fuc(a1-4)]GlcNAc(b1-3)Gal(b1-3)[Fuc(a1-4)]GlcNAc
# Summary of the method: as §1
# [22] = molecular target: Neu5Ac(a2-3)Gal(b1-3)[Fuc(a1-4)]GlcNAc(b1-3)Gal(b1-4)[Fuc(a1-3)]GlcNAc
# Summary of the method: as §1
# [23] = molecular target: Neu5Ac(a2-3)Gal(b1-3)[GlcNAc(b1-6)]GalNAc
# Summary of the method: as §1
# [24] = molecular target: Neu5Ac(a2-3)Gal(b1-3)[Neu5Ac(a2-6)]GalNAc
# Summary of the method: as §1
# [25] = molecular target: Neu5Ac(a2-3)Gal(b1-3)[Neu5Ac(a2-6)]GlcNAc(b1-3)[Fuc(a1-3)[Gal(b1-4)]GlcNAc(b1-6)]Gal(b1-4)Glc
# Summary of the method: as §1
# [26] = molecular target: Neu5Ac(a2-3)Gal(b1-3)]Neu5Ac(a2-3)Gal(b1-4)]GlcNAc
# Summary of the method: as §1
# Neu5Ac(a2-3)Gal(b1-4)Glc = molecular target: Neu5Ac(a2-3)Gal(b1-4)Glc
# Summary of the method: as §1
# [27] = molecular target: Neu5Ac(a2-3)Gal(b1-4)GlcNAc
# Summary of the method: as §1
# [28] = molecular target: Neu5Ac(a2-3)Gal(b1-4)GlcNAc(b1-2)Man
# Summary of the method: as §1
# [29] = molecular target: Neu5Ac(a2-3)Gal(b1-4)GlcNAc(b1-2)Man(a1-3)[GlcNAc(b1-4)][Neu5Ac(a2-3)Gal(b1-4)GlcNAc(b1-2)Man(a1-6)]Man(b1-4)GlcNAc(b1-4)GlcNAc
# Summary of the method: as §1
# [30] = molecular target: Neu5Ac(a2-3)Gal(b1-4)GlcNAc(b1-2)Man(a1-3)[Neu5Ac(a2-3)Gal(b1-4)GlcNAc(b1-2)Man(a1-6)]Man(b1-4)GlcNAc(b1-4)GlcNAc
# Summary of the method: as §1
# [31] = molecular target: Neu5Ac(a2-3)Gal(b1-4)GlcNAc(b1-2)Man(a1-3)[Neu5Ac(a2-3)Gal(b1-4)GlcNAc(b1-2)Man(a1-6)]Man(b1-4)GlcNAc(b1-4)[Fuc(a1-6)]GlcNAc
# Summary of the method: as §1
# [32] = molecular target: Neu5Ac(a2-3)Gal(b1-4)GlcNAc(b1-2)Man(a1-3)[Neu5Ac(a2-6)Gal(b1-4)GlcNAc(b1-2)Man(a1-6)]Man(b1-4)GlcNAc(b1-4)GlcNAc
# Summary of the method: as §1
# [33] = molecular target: Neu5Ac(a2-3)Gal(b1-4)GlcNAc(b1-2)[Neu5Ac(a2-3)Gal(b1-4)GlcNAc(b1-4)]Man(a1-3)[GlcNAc(b1-4)][Neu5Ac(a2-3)Gal(b1-4)GlcNAc(b1-2)[Neu5Ac(a2-3)Gal(b1-4)GlcNAc(b1-6)]Man(a1-6)]Man(b1-4)GlcNAc(b1-4)GlcNAc
# Summary of the method: as §1
binder,measurement,setting,value
B1,glycan array binding signal (z-score),[1],-0.226
same,glycan array binding signal (z-score),[2],-0.332
same,glycan array binding signal (z-score),[3],-0.33
same,glycan array binding signal (z-score),[4],-0.299
same,glycan array binding signal (z-score),Man(a1-6)Man,-0.278
same,glycan array binding signal (z-score),Man(b1-4)GlcNAc,-0.351
same,glycan array binding signal (z-score),MurNAc(b1-4)GlcNAc,-0.283
same,glycan array binding signal (z-score),Neu5Ac(a2-3)Gal,-0.321
same,glycan array binding signal (z-score),[5],-0.354
same,glycan array binding signal (z-score),[6],-0.352
same,glycan array binding signal (z-score),[7],-0.325
same,glycan array binding signal (z-score),[8],-0.209
same,glycan array binding signal (z-score),[9],-0.299
same,glycan array binding signal (z-score),[10],-0.261
same,glycan array binding signal (z-score),[11],-0.303
same,glycan array binding signal (z-score),[12],-0.213
same,glycan array binding signal (z-score),[13],-0.276
same,glycan array binding signal (z-score),[14],-0.309
same,glycan array binding signal (z-score),[15],-0.172
same,glycan array binding signal (z-score),[16],-0.339
same,glycan array binding signal (z-score),[17],-0.367
same,glycan array binding signal (z-score),[18],-0.346
same,glycan array binding signal (z-score),[19],-0.318
same,glycan array binding signal (z-score),[20],-0.337
same,glycan array binding signal (z-score),[21],-0.227
same,glycan array binding signal (z-score),[22],-0.243
same,glycan array binding signal (z-score),[23],-0.228
same,glycan array binding signal (z-score),[24],-0.28
same,glycan array binding signal (z-score),[25],-0.413
same,glycan array binding signal (z-score),[26],-0.157
same,glycan array binding signal (z-score),Neu5Ac(a2-3)Gal(b1-4)Glc,-0.179
same,glycan array binding signal (z-score),[27],-0.381
same,glycan array binding signal (z-score),[28],-0.297
same,glycan array binding signal (z-score),[29],-0.342
same,glycan array binding signal (z-score),[30],-0.248
same,glycan array binding signal (z-score),[31],-0.241
same,glycan array binding signal (z-score),[32],0.471
same,glycan array binding signal (z-score),[33],-0.258
